Reference: the supplement of paper PMC12217912
Some of the results follow. Sequences were assembled here from the parent chain. Values near 0.05 are background.

B1: TEV protease; numbered along this chain (parent)
chain: MGESLFKGPRDYNPISSSICHLTNESDGHTTSLYGIGFGPFIITNKHLFRRNNGTLVVQSLHGVFKVKDTTTLQQHLVDGRDMIIIRMPKDFPPFPQKLKFREPQREERICLVTTNFQTKSMSSMVSDTSCTFPSGDGIFWKHWIQTKDGQCGSPLVSTRDGFIVGIHSASNFTNTNNYFTSVPKNFMELLTNQEAQQWVSGWRLNADSVLWGGHKVFMVKPEEPFQPVKEATQL

Variants of: B1
Test: raw area under fraction-flipped curve 0-4 h after induction (AUC4h, not background-subtracted), DNA-recorder readout of cleavage of the substrate (dimensionless); higher = more cleavage of the substrate by the protease variant
Settings: temperature: 34 °C; time window: 0-4 h after rhamnose induction
Protocol: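 In vivo DNA recorder in E. coli TOP10(DE3) ΔrhaA at 34 °C. Each TEVp single-site mutant (parent TEVp 0) is paired with a single-site variant of the 7-mer TEVs (canonical ENLYFQ|S). The substrate sits between flexible linkers in a Bxb1-sfGFP-TEVs-SsrA fusion, so cleavage stabilises Bxb1 and speeds flipping of a recombination array, read by NGS. The value is the raw area under the fraction-flipped curve over 0-4 h after rhamnose induction (AUC4h), with ≥20 reads per time point. It is not background-subtracted; inactive controls average about 0.047.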
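Further: Bxb1 expression induced with 0.2% (w/v) L-rhamnose at OD600 near 0.5, cultures sampled hourly, flipped fraction per protease–substrate barcode pair counted by paired-end Illumina sequencing.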

Variant | area with substrate EALYFQS | area with substrate ECLYFQS | area with substrate EDLYFQS | area with substrate EELYFQS | area with substrate EFLYFQS | area with substrate EHLYFQS | area with substrate EILYFQS | area with substrate ELLYFQS | area with substrate ESLYFQS | area with substrate EVLYFQS | area with substrate EYLYFQS | area with substrate EGLYFQS | area with substrate EKLYFQS | area with substrate EMLYFQS | area with substrate EPLYFQS | area with substrate EQLYFQS | area with substrate ERLYFQS | area with substrate EWLYFQS | area with substrate ETLYFQS
R50L | 0.129 | 0.136 | 0.191 | 0.137 | 0.112 | 0.173 | 0.0977 | 0.114 | 0.14 | 0.105 | 0.119 |  |  |  |  |  |  |  | 
L48H | 0.0523 | 0.0457 | 0.0677 |  |  | 0.145 |  |  | 0.059 | 0.0566 | 0.0374 | 0.0606 | 0.0532 | 0.0725 | 0.0582 | 0.0587 | 0.0559 |  | 
K46F | 0.0664 | 0.0693 | 0.119 |  |  | 0.0691 | 0.0559 |  | 0.0747 | 0.0627 |  |  |  | 0.0636 | 0.0871 | 0.0892 | 0.0724 | 0.0541 | 
K46E | 0.0604 | 0.0725 | 0.0793 | 0.052 | 0.0692 | 0.0423 | 0.0464 | 0.047 | 0.0624 | 0.0525 | 0.053 | 0.0497 | 0.0553 | 0.06 | 0.0509 | 0.0572 | 0.0539 | 0.0527 | 
K46R | 0.132 | 0.0871 | 0.133 | 0.123 | 0.0975 | 0.101 | 0.092 | 0.0752 | 0.091 | 0.0993 | 0.099 |  | 0.0537 | 0.095 | 0.12 | 0.0672 | 0.0795 | 0.0817 | 0.118
G39S | 0.0373 | 0.0473 | 0.0544 | 0.042 |  | 0.0468 | 0.0387 | 0.0285 | 0.0434 | 0.0364 | 0.0378 | 0.0503 | 0.0616 | 0.0528 | 0.0447 | 0.0558 | 0.0517 | 0.048 | 0.0203
G39K | 0.038 | 0.0433 | 0.0385 | 0.0414 |  | 0.0983 | 0.0445 | 0.0325 | 0.0472 | 0.0477 | 0.0404 | 0.0303 |  | 0.0506 |  |  |  | 0.061 | 0.0402
G39V | 0.0449 | 0.0464 | 0.0359 | 0.0404 | 0.0382 | 0.0466 | 0.0413 |  | 0.0448 | 0.0413 | 0.0418 | 0.0395 | 0.0476 | 0.0455 | 0.0312 | 0.0482 | 0.0319 | 0.0441 | 
F49H | 0.0619 | 0.0539 |  | 0.0747 |  |  |  |  | 0.0641 | 0.0421 | 0.0572 | 0.0626 | 0.0646 |  |  | 0.0643 |  |  | 0.0696
T44Q | 0.0371 | 0.0405 |  | 0.0434 | 0.0418 | 0.0361 | 0.0311 |  | 0.0328 |  | 0.0346 | 0.0525 | 0.0451 | 0.0438 | 0.0361 | 0.0378 | 0.0501 | 0.0491 | 
T44L | 0.0613 | 0.0624 | 0.0697 | 0.0496 | 0.0646 | 0.0605 | 0.0652 | 0.075 | 0.0631 | 0.0574 | 0.0721 | 0.0579 | 0.0488 | 0.0659 | 0.0714 | 0.0664 | 0.0635 | 0.0658 | 0.0554
F41N | 0.105 | 0.0792 | 0.096 | 0.0827 |  | 0.099 | 0.0832 |  | 0.0933 | 0.0901 | 0.0917 | 0.0909 |  | 0.0997 | 0.108 | 0.11 | 0.0949 |  | 
R51C | 0.119 | 0.115 |  | 0.138 |  | 0.12 | 0.0811 |  | 0.102 | 0.0991 |  | 0.0999 | 0.104 | 0.117 | 0.0559 | 0.122 | 0.126 |  | 
R51M | 0.117 | 0.126 | 0.154 | 0.13 |  | 0.127 | 0.0886 | 0.114 | 0.0901 | 0.096 | 0.109 |  | 0.105 |  |  | 0.143 | 0.126 |  | 
N52F | 0.0688 | 0.0674 | 0.055 | 0.0664 |  |  | 0.055 | 0.0699 | 0.0707 | 0.0621 |  |  | 0.0542 | 0.0703 | 0.0795 | 0.0643 | 0.0636 |  | 0.0604
N45D | 0.0629 | 0.0577 | 0.0645 | 0.0626 | 0.0558 | 0.0551 | 0.0637 | 0.0646 | 0.0637 | 0.0561 | 0.0586 | 0.062 | 0.0567 | 0.0628 | 0.0577 |  | 0.0522 | 0.0545 | 
N45S | 0.0948 | 0.0688 |  | 0.0884 | 0.0732 | 0.0848 | 0.0768 |  | 0.0686 |  | 0.0898 | 0.0322 |  |  | 0.0851 | 0.0809 |  |  | 0.0695
N45Q | 0.0685 | 0.0526 | 0.0636 | 0.0505 |  | 0.0508 | 0.059 | 0.0526 | 0.0566 | 0.0511 |  | 0.0386 | 0.0406 | 0.0285 |  | 0.0596 | 0.0516 | 0.0583 | 
I43V | 0.0897 | 0.119 | 0.106 |  |  |  | 0.0972 |  | 0.0978 |  | 0.0854 | 0.111 |  | 0.123 | 0.119 | 0.13 | 0.102 |  | 0.111
I42W | 0.0847 | 0.0714 | 0.0871 | 0.0932 |  | 0.079 | 0.0686 | 0.069 | 0.0703 | 0.0747 |  | 0.0794 | 0.0841 | 0.075 | 0.0615 | 0.0768 | 0.0908 |  | 
I42D | 0.0439 | 0.0469 |  | 0.0469 |  |  | 0.0455 |  |  |  | 0.0391 | 0.0491 |  | 0.0526 |  |  |  |  | 
I42G | 0.0415 | 0.0438 | 0.0605 | 0.0454 |  | 0.0778 | 0.0416 |  | 0.0428 | 0.0624 | 0.0401 | 0.0429 | 0.0546 |  | 0.0323 | 0.0423 | 0.0399 |  | 
H47R | 0.0668 | 0.056 | 0.0785 | 0.0621 | 0.0299 |  | 0.0647 | 0.0721 |  | 0.0651 | 0.0636 | 0.0723 |  |  | 0.0536 | 0.0635 | 0.0635 | 0.0411 | 
H47A | 0.0641 | 0.0708 | 0.0641 | 0.0552 |  |  | 0.0577 | 0.0423 | 0.0527 |  | 0.0426 |  |  | 0.0749 |  |  | 0.0485 | 0.0662 | 
P40A | 0.117 |  | 0.131 | 0.139 |  | 0.117 |  | 0.11 | 0.116 | 0.114 |  | 0.0946 | 0.108 |  | 0.107 | 0.139 | 0.116 |  | 0.123
